This is an account of results in the supplement of paper PMC3334620.

Whole data set: some 33,000 sequences, median “E-score (-0.5 to 0.5)” near -0.054, cut for the highest 2% near 0.35. This is one part of the list.

The target in the assay is T1, Stb5 (UniProt P38699).
T1 sequence: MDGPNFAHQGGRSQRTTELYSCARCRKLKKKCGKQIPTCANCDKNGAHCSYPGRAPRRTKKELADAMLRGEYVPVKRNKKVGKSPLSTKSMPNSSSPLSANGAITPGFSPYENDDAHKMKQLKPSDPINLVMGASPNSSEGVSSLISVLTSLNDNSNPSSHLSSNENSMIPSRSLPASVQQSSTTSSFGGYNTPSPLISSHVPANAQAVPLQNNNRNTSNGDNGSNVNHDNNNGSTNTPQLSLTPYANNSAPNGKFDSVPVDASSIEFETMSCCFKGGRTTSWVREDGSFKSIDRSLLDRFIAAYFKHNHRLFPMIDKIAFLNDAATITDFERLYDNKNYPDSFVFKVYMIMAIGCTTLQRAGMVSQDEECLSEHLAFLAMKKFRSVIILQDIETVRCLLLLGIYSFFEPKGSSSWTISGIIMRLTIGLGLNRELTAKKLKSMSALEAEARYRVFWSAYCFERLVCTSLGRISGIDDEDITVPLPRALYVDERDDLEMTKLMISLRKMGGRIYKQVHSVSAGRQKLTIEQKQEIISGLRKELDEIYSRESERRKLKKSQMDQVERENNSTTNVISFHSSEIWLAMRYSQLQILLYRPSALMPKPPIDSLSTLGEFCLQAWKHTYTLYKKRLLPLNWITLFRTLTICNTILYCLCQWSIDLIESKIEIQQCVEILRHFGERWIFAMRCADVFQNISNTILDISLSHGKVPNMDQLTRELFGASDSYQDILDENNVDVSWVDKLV
In words: PBM E-score (8-mer binding enrichment) (E-score (-0.5 to 0.5)); higher = stronger / more preferred TF binding; most listed sequences are background and not binding sites. The following applies: protein concentration: 200 nM; construct: GST-full length. The method in brief:
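Universal all-10-mer Agilent arrays, fresh or stripped once, were converted to double-stranded form by primer extension. GST-tagged yeast transcription factors from PURExpress in vitro transcription/translation, full-length or DNA-binding domain only, were applied at about 100-200 nM and detected with fluorescent anti-GST. After masliner normalisation, the Universal PBM Analysis Suite scored each ungapped eight-base word together with its reverse complement by E-score.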
Take CAGCCACC: the “PBM E-score” value was -0.0335.

Take CAGGGCTC: the “PBM E-score” value is -0.306.

For the sequence CACAAAAG, the “PBM E-score” value is 0.0345.

Consider AAAACTGA, for which the “PBM E-score” value was -0.0956.

For the sequence GATGGCAC, the “PBM E-score” value stood at 0.0752.

In the case of AGTCTGAC, the “PBM E-score” value is -0.241.

For the sequence GGTGGGTA, the “PBM E-score” value turned out to be 0.126.

On to CGCGACCA, for which the “PBM E-score” value stood at 0.0407.

Regarding CACGATTA, the “PBM E-score” value is -0.0734.

As for ATCCTTCG, the “PBM E-score” value came to 0.106.

Regarding CGTAGCGA, the “PBM E-score” value amounted to 0.067.

On to ACTCGAAT, for which the “PBM E-score” value was -0.174.

As to TCAGCGAA, the “PBM E-score” value was -0.125.

Turning to CAGCTTCA, the “PBM E-score” value is -0.212.

Take ATTCTCCG: the “PBM E-score” value was found to be 0.341.

Take AAACACGA: the “PBM E-score” value was -0.121.

AGATTATA: the “PBM E-score” value came out at 0.0725.

For ATTTTGTA, the “PBM E-score” value is -0.0499.

In the case of CACACGAG, the “PBM E-score” value was -0.298.

With CCGCAAGG, the “PBM E-score” value came to 0.182.

In the case of ATTGCGGA, the “PBM E-score” value came to 0.0931.

Turning to GAGTCCAC, the “PBM E-score” value is 0.0155.

As to CTAACGCA, the “PBM E-score” value amounted to 0.118.

For CCCCAGAC, the “PBM E-score” value is -0.217.

Turning to ACGCAACG, the “PBM E-score” value was -0.0532.

For ATATAGAC, the “PBM E-score” value was -0.0158.

As to CACCGTAA, the “PBM E-score” value amounted to 0.115.

For the sequence ACTCAAAA, the “PBM E-score” value is -0.0518.

Take CACCTCGA: the “PBM E-score” value was -0.147.

AGATGGAT: the “PBM E-score” value was -0.192.

In the case of AGTCGTTC, the “PBM E-score” value was -0.25.

As to ATTAGAGG, the “PBM E-score” value is -0.0978.

As for ATTCTTAC, the “PBM E-score” value is -0.0134.

For CCCAGGTC, the “PBM E-score” value is -0.149.

On to CCTGCGCC, for which the “PBM E-score” value is -0.0579.

As for TCACTGAA, the “PBM E-score” value was -0.0284.

As for AAAACTCG, the “PBM E-score” value was -0.0572.

In the case of CATCTCTC, the “PBM E-score” value came to 0.0857.

As for CCTCGACA, the “PBM E-score” value was -0.246.

Turning to CTGTCAGA, the “PBM E-score” value is -0.207.

With CTACAGTA, the “PBM E-score” value was -0.125.

Regarding CTGCAATC, the “PBM E-score” value is -0.0884.

ATCCGTAG: the “PBM E-score” value turned out to be 0.0937.

Regarding TAAGATGA, the “PBM E-score” value is -0.202.

Consider GACAATAC, for which the “PBM E-score” value amounted to 0.0556.

On to ATGGAGAA, for which the “PBM E-score” value is -0.116.

Regarding AGAACGGA, the “PBM E-score” value worked out at 0.267.

With AGTCCGAC, the “PBM E-score” value was determined as 0.436.

With GGAAATAC, the “PBM E-score” value turned out to be 0.162.

For AGCGTTAC, the “PBM E-score” value is -0.173.

Turning to AGATCTCA, the “PBM E-score” value was -0.223.

Turning to GCTCGATA, the “PBM E-score” value was -0.00732.

CGGGGTCC: the “PBM E-score” value is 0.221.

Turning to GAGAACGA, the “PBM E-score” value is -0.21.

Consider AAGGGTCG, for which the “PBM E-score” value amounted to 0.00304.

For the sequence CATCGACG, the “PBM E-score” value was found to be 0.0157.

For the sequence AGGCATTA, the “PBM E-score” value turned out to be 0.00131.

Consider GGCTGTAA, for which the “PBM E-score” value is -0.129.

Regarding GTAGTGAC, the “PBM E-score” value turned out to be 0.0694.

CGCATCCA: the “PBM E-score” value came out at 0.137.

Take TCTCTGCA: the “PBM E-score” value is -0.11.

Consider AAGTTGTA, for which the “PBM E-score” value was -0.189.

Consider CCACATCG, for which the “PBM E-score” value was -0.0333.

As to CGGGGATA, the “PBM E-score” value is 0.478.

Take ACGCCACC: the “PBM E-score” value is -0.0994.

Turning to ATAATTTG, the “PBM E-score” value was 0.0923.

Regarding AAACAACA, the “PBM E-score” value was -0.264.

Take CGATTATC: the “PBM E-score” value is 0.111.

Turning to TCTGAAGA, the “PBM E-score” value is -0.164.

Take ATAGCTAC: the “PBM E-score” value was -0.279.

Consider CCCGTTAA, for which the “PBM E-score” value is 0.129.

ACAATAAA: the “PBM E-score” value was -0.0791.

For ACGACGCT, the “PBM E-score” value was determined as 0.0232.

With GCTCGAGA, the “PBM E-score” value is -0.227.

Regarding AACATTGG, the “PBM E-score” value is -0.213.

Regarding AGGTGTTA, the “PBM E-score” value is 0.381.

Consider AGACATCA, for which the “PBM E-score” value is -0.0953.

For the sequence ACTGTCAC, the “PBM E-score” value is -0.1.

Take CAGGGTTA: the “PBM E-score” value is -0.101.

For CGACGTCC, the “PBM E-score” value turned out to be 0.0474.

Consider GTTGTACA, for which the “PBM E-score” value is 0.111.

Turning to GGCCATGA, the “PBM E-score” value is -0.0728.

With GCTTATGA, the “PBM E-score” value is -0.151.

On to GCCGTTGA, for which the “PBM E-score” value amounted to 0.164.

With CTCTCCAA, the “PBM E-score” value was found to be 0.0654.

On to CCGTTGAG, for which the “PBM E-score” value turned out to be 0.16.

ATGGCACA: the “PBM E-score” value is -0.0455.

Consider TCTTTTAA, for which the “PBM E-score” value is -0.014.

Consider CCGCGGGA, for which the “PBM E-score” value worked out at 0.349.

As to ACCGTAAG, the “PBM E-score” value amounted to 0.27.

Consider ACTAACTA, for which the “PBM E-score” value was -0.0974.

ATGGGCTA: the “PBM E-score” value was -0.306.

As for CCGGAGGA, the “PBM E-score” value was 0.289.

As for AAGTCTCG, the “PBM E-score” value is -0.119.
